# Whole data set: some 110,000 compounds, median “z-score” near -0.1, cut for the highest 2% near 2. Some of the results follow. Calls of active or inactive are those of the source.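 Rule for the calls: active = z-score in the third read window above 3 or below -3; inactive = the rest.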
# Biological target: Metabotropic glutamate receptor 8 (Rattus norvegicus) (UniProt P70579)
# Test: rat mGluR8 modulators via GIRK flux, primary screen, cell-based, thallium flux, HTS (AID 488969)
# Details: HEK293 rat mGluR8, GIRK (G protein-gated inwardly rectifying potassium channel) thallium flux, FluoZin2; at 10 µM; stronger effect = higher value; submaximal glutamate (EC20) added with thallium
# Sequence of UniProt P70579 (P70579 whole entry, looked up): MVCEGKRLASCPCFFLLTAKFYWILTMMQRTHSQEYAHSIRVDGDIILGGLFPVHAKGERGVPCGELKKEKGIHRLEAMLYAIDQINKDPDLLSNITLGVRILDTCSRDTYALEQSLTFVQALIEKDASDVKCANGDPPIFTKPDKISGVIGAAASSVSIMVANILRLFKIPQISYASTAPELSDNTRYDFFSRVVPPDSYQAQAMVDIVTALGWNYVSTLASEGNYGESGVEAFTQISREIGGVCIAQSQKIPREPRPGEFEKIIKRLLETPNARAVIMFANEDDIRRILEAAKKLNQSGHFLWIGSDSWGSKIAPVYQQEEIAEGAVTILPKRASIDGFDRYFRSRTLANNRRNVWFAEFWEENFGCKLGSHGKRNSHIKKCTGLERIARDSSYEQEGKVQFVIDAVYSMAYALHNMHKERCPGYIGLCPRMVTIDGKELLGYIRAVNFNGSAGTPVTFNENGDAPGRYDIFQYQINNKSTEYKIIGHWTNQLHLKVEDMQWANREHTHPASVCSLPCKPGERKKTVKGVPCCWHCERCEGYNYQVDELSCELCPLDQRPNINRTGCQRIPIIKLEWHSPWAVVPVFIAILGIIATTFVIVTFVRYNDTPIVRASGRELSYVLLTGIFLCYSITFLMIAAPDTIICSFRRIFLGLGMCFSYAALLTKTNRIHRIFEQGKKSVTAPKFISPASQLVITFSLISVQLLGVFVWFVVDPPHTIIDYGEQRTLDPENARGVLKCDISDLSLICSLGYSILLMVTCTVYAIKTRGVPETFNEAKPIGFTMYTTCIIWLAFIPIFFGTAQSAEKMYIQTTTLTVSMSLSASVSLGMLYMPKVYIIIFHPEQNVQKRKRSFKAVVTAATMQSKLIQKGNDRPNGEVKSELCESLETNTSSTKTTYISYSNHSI
row,SMILES,z-score
1,CCOC(=O)c1cn(CC(=O)Nc2ccc(C)cc2)nn1,0.247
2,Cc1nn(-c2ccccc2)c(C)c1C(=O)Nc1nnc(-c2ccco2)o1,0.755
3,CCOC(=O)Nc1cccc(Nc2ccccc2)c1,-0.654
4,Cc1cc(C)n(-c2nc3ccccc3nc2Nc2ccc3[nH]c(=O)[nH]c3c2)n1,-0.333
5,N/C(Cc1ccc(Cl)cc1)=N\OC(=O)c1ccccc1,0.174
6,Cc1ccc(OCCOCCNC(C)(C)C)c([N+](=O)[O-])c1,-0.619
7,COc1ccc(C2=NN(S(C)(=O)=O)C(c3ccc4nccnc4c3)C2)cc1 (centres undefined),-0.209
8,Cc1ccc(N(CC(=O)NCCc2ccccc2)S(=O)(=O)c2c(C)noc2C)cc1,-0.292
9,CCn1nc(C(=O)Nc2ccc3nc(C)sc3c2)c2ccccc2c1=O,-1.1
10,C=CCNC(=S)/N=c1\sccn1C,-0.359
11,O=C1CC(c2ccccc2)CC(O)=C1C=NCc1ccccc1 (centres undefined),-0.229
12,COc1ccc(/C=N/NC(=O)CCc2ccccc2)cc1O,0.0155
13,COc1ccc(/C=C2\SC(=O)N(CCNC(=O)CCS(=O)(=O)c3ccc(C)cc3)C2=O)cc1,-0.156
14,CCOC(=O)Cc1csc(NC(=O)CCCCCN2C(=O)c3cccc4cccc(c34)C2=O)n1,-0.241
15,O=C(COC(=O)CCS(=O)(=O)c1ccc(Cl)cc1)NCCc1ccccc1,-0.341
16,COc1cc(Cn2c(C(=O)O)cc3sccc32)cc(OC)c1OC,1
17,Cc1cccc(-c2noc(C3CCCCC3)n2)c1,0.407
18,COc1ccc(C)cc1-n1c(N)c(C#N)c(C#N)c1-c1ccc(OC)c(OC)c1OC,-1.25
19,N#Cc1ccc(C(=O)Nc2nnc(-c3ccccn3)o2)cc1,-0.232
20,COc1ccc2c(CC(=O)OCC(=O)NC(=O)c3cccn3C)coc2c1,0.246
21,COc1ccc(N(C(C)C(=O)N/N=C/c2ccc(OC(C)C)cc2)S(C)(=O)=O)cc1 (centres undefined),0.783
22,CN(CC(=O)Nc1ccccc1Cl)C(=O)CSc1nc2ccccc2s1,-0.261
23,CCOc1ccc(NC(=O)C[n+]2ccccc2)cc1,-0.353

row,SMILES,z-score
1,CN(c1ccccc1C(=O)N1CCc2ccccc2C1)S(C)(=O)=O,-0.121
2,Cc1nn(Cc2c(Cl)cccc2Cl)c(C)c1NC(=O)/C=C/c1cnn(C)c1C,0.463
3,Cc1cccc(-c2nc(CN3CCCC(C(=O)NC4CCCC4)C3)c(C)o2)c1 (centres undefined),-1.37
4,O=C(COc1ccc(S(=O)(=O)NCc2ccccc2)cc1Cl)N1CCOCC1,0.478
5,CCCNS(=O)(=O)c1ccc(NC(=O)c2cccnc2)cc1,-0.00977
6,Cc1cccc(Cn2cnc3c(nnn3Cc3ccc(Cl)cc3)c2=O)c1,-0.705
7,O=C1NC(c2ccccc2)=C(c2nc3ccccc3s2)C(c2ccccc2)N1 (centres undefined),-0.336
8,CC(=O)c1cccc(NC(=O)N2C3CCC2CC(O)(c2cccnc2)C3)c1 (centres undefined),0.301
9,COc1ccc(-c2cc(=O)oc3cc(OCC(C)=O)ccc23)cc1,-0.444
10,O=C(NC1CCCCC1)N1CCCCCC1,-0.274
11,CCCCCCOC(=O)c1ccccc1NC(=O)/C=C/C(=O)O,-0.225
12,CCc1sc(N(C(=O)Cc2ccccc2)c2ccccc2)nc1-c1ccccc1,-0.282
13,O=C(NC(=S)Nc1ccccc1)c1ccc(-c2ccccc2)cc1,0.0142
14,Cc1cccc(CN2CCC(CNC(=O)CCNC(=O)Cn3ccc4ccccc4c3=O)CC2)c1,-0.122
15,CCOC(=O)c1sc2nccc(N(C)C)c2c1N=CNOCc1c(F)cccc1Cl,-0.108
16,O=C(Nc1nc2ccccc2s1)C1CC(=O)N(c2ccc(F)cc2)C1 (centres undefined),0.674
17,NC(=O)[C@H](Cc1cc2ccccc2s1)NC(=O)[C@@H]1CC2(CC(c3cccc(NC(=O)[C@@H]4CCC(=O)N4)c3)=NO2)CN1C(=O)/C=C/c1c(F)cccc1Cl (some centres undefined),0.0332
18,O=C(Nc1ccc(NC(=O)c2sc3ccccc3c2Cl)cc1)c1ccco1,0.00434
19,CCC(C)(C)n1nnnc1C(c1cc(OC)ccc1OC)N1CCC(C(N)=O)CC1 (centres undefined),-0.05
20,COc1ccc(-c2ccc(-c3noc(C)n3)c(OC)n2)cc1,0.368
21,O=C(NC1CCCCC1)C(c1ccc(Cl)cc1)N1CCC2(CC1)OCCO2 (centres undefined),-0.136
22,Fc1ccc(-c2nc3ccncc3[nH]2)cc1,-0.635
23,CC1Cc2ccccc2N1C(=O)C1CCCCN1S(=O)(=O)c1ccccc1 (centres undefined),-0.984

row,SMILES,z-score
1,COC(=O)c1sc(NC(=S)NC(=O)c2ccccc2Cl)nc1C,active: 5.46
2,COc1ccc(-c2noc(CCC(=O)Nc3ccc(C)c(C)c3)n2)cc1,1.09
3,O=C(N/N=C/c1ccco1)c1cnccn1,-0.0222
4,O=[N+]([O-])c1ccccc1SN(Cc1ccccc1)c1ccccn1,-0.276
5,CCOC(=O)c1nc[nH]c1C,-0.162
6,CC(C(=O)NCCCN1CCOCC1)n1cccc1C(=O)c1ccccc1 (centres undefined),0.622
7,COc1ccccc1CCn1cnc2c3cc(C)ccc3n(C)c2c1=O,-1.2
8,COC(=O)c1sc2ncccc2c1OCc1cccc(Cl)c1,-0.111
9,COc1ccc(-c2csc(NC(=O)c3ccco3)n2)cc1,-0.444
10,COc1ccc(Br)cc1CNC(=O)C1CCC(=O)N1C(C)C (centres undefined),-0.111
11,CCN(Cc1ccccc1)C(=O)CSc1nc(C)cc(C)c1C#N,-0.25
12,Cc1ccc(N2C(=O)C(O)(C(F)(F)F)C3=C2CC(C)(C)CC3=O)cc1C (centres undefined),-0.405
13,Cc1cc(C)c2c(c1)/C(=N/NC(=S)Nc1ccc(F)cc1)CCC2,2.6
14,Cc1c(NC(=O)CSc2nnc3sc4ccccc4n23)c(=O)n(-c2ccccc2)n1C,-0.134
15,CCCN(CCC)c1c([N+](=O)[O-])c(=O)oc2ccccc12,-0.893
16,COc1ccc(/C=N/S(=O)(=O)CCc2ccccc2)c(OC)c1,-0.284
17,O=C(NCc1ccccc1)c1c(O)c2cccc3c2n(c1=O)CCC3,-0.335
18,CC(C(N)=O)N1C(=O)C2C3C=CC(C3)C2C1=O (centres undefined),-0.159
19,Cc1cnc(NC(=O)C2CCCC2)s1,-0.0338
20,COc1ccc(N2CCN(C(=O)CN(CCc3ccccc3)S(C)(=O)=O)CC2)cc1,-0.213
21,Cc1nnc(SCC(=O)Nc2ccc(Cl)cn2)[nH]c1=O,-0.143
22,COc1ccc(-c2csc(C)n2)cc1,-0.337
23,CC1CCN(C(=S)Nc2ccc(F)cc2)CC1,-0.195

row,SMILES,z-score
1,CCN1CCN(C(=O)c2ccc3c(=O)n(C4CCCC4)c(=S)[nH]c3c2)CC1,active: 5.09
2,O=S(Cc1ccccc1)CC(O)(c1ccc(Cl)cc1)c1ccc(Cl)cc1 (centres undefined),0.285
3,CC1N(O)C(c2ccc(Cl)cc2Cl)N(O)C1(C)C (centres undefined),0.381
4,COc1ccc(N2C(=O)C3CCCN3C2c2cccc(C)c2)cc1 (centres undefined),-0.338
5,CCOc1ccccc1-c1nc(-c2ccncc2)no1,0.0712
6,CCOC(=O)c1cnc2cc(C)nn2c1-c1ccccc1,0.228
7,O=C1CCc2cc(S(=O)(=O)NC(Cc3ccccc3)C(=O)NCCC3=CCCCC3)ccc2N1 (centres undefined),-0.234
8,CCc1ccc(C(=O)CSc2nc3cc(S(=O)(=O)N4CCOCC4)ccc3n2CC)cc1,-0.33
9,COCCN(Cc1cc2cc3c(cc2nc1Cl)OCO3)C(=O)Nc1ccc(OC)cc1,-0.0519
10,CC1CCN(CCCNC(=O)c2cc3c(=O)n(C)c4ccccc4c3n2C)CC1,2.7
11,Oc1ccccc1/C=N/Nc1nccnc1Cl,0.965
12,CCn1nc(CC(=O)Nc2nnc(CC(=O)N3CCOCC3)s2)c2ccccc2c1=O,-0.868
13,O=C(CSc1nc2ccccc2c(=O)n1CC1CCCO1)N1CCN(c2ccccc2)CC1 (centres undefined),-2.48
14,CC1CCN(CCCCOc2ccccc2Br)CC1,-0.0355
15,CCn1c(C(=O)N2CCCC(C(=O)O)C2)cc2sccc21 (centres undefined),0.0393
16,Cn1c(=O)oc2cc(S(=O)(=O)NCC3CCCO3)ccc21 (centres undefined),0.223
17,CCCCOC(=O)NC(NCC(O)c1ccccc1)(C(F)(F)F)C(F)(F)F (centres undefined),0.379
18,COCCNC(=O)COc1ccccc1C,-0.241
19,COc1ccccc1C1CC(=O)Nc2c1c(=O)n(C)c(=O)n2C (centres undefined),-0.0435
20,COc1cccc(Nc2nc(-c3sc(NC(=O)c4ccccc4)nc3C)cs2)c1,-0.232
21,CN(C)c1ccc(NS(=O)(=O)c2ccc(Cl)cc2)cc1,0.00118
22,CC(/C=C/c1ccc2c(c1)OCO2)=N/NC(=O)c1ccc(C)nc1,0.0861
23,COC(=O)C1=C(C)N(C)C(=O)NC1c1cc(Cl)c(O)c(OC)c1 (centres undefined),0.559

row,SMILES,z-score
1,O=C(Nc1nnc(-c2ccncc2)o1)C1CCCCC1,1.01
2,O=C(NCCN1CCN(C(=O)c2cccs2)CC1)c1cccs1,0.221
3,O=C1c2ccccc2NC2(CCCC2)N1O,0.103
4,Cc1cccc2c1Sc1ccccc1CC2=O,-0.19
5,c1ccc(CCc2nc(-c3ccncc3)no2)cc1,0.202
6,Cn1ncc2cc(NC(=S)NC(=O)c3ccccc3)ccc21,2.21
7,COCCn1c(C)cc(C(=O)CSc2ccc3ccccc3n2)c1C,-0.331
8,COc1ccc(-n2ccsc2=S)cc1,-0.032
9,O=C(C1=C(O)C(=O)N(CCN2CCOCC2)C1c1ccncc1)c1ccco1 (centres undefined),1.07
10,Nc1nnc(SCC(=O)NCCOc2ccccc2)s1,-0.164
11,O=C1c2ccccc2-c2onc3c(Oc4ccccc4)cc(O)c1c23,-0.148
12,Cn1ncc(C#N)c1/N=C/N1CCCC1,-0.709
13,Cn1cnc2cc(NS(=O)(=O)c3ccc(Br)cc3)ccc21,0.0485
14,O=C(Nc1cccc(Cl)c1)C1CCCN(S(=O)(=O)c2ccc(F)cc2)C1 (centres undefined),-0.202
15,COc1ccc(NC(=O)CN2CCN(CC(=O)Nc3ccccc3F)CC2)c(OC)c1,0.278
16,NC(=S)N/N=C/c1coc2c(ccc3ccccc32)c1=O,-2.17
17,O=C(Nc1cccc2ccccc12)N1CCN(c2ccccc2)CC1,-0.177
18,CCOc1ccccc1NC(=O)C1CCN(S(=O)(=O)c2ccc(OC)c(OC)c2)CC1,0.0579
19,O=C(Cn1cnc2ccccc21)NCCCN1CCOCC1,-0.019
20,COc1ccc2c(c1)c(=O)oc1cc3occ(C(C)(C)C)c3cc12,-0.319
21,S=C1N(c2ccccc2)C(c2ccccc2)N2CCCN12 (centres undefined),-0.167
22,O=C(N/N=C/c1c[nH]c2ccccc12)c1sc2ccccc2c1Cl,-0.0651
